Assay results from PubChem BioAssay AID1508624 (National Center for Advancing Translational Sciences (NCATS), 2021).
Hit rate of the full screen: of about 48,000 compounds, about 120 (0.25%) were called active. Inconclusive results (about 4%) are left out. The call rests on the fitted dose curve; in most records, active means well fitted activation curve with a large enough effect; inconclusive means small, poorly fitted or top-dose-only effect, or another doubt; inactive means no such curve, though single readings can be large or run the other way. The list shows a part of the results.

Experiment: Primary qHTS for Identification of Small Molecule Activators of Huntingtin-Antisense Promoter Activity; further: nearly all actives have a fitted effect of over 55% in size
Settings: HEK293 HTT-AS promoter firefly luciferase reporter, 24 h; series mostly up to 57.5 µM; activity change, positive = activation: at the top concentration
How it was run: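 Quantitative HTS used concentration series of up to 57.5 uM final on HEK293 luciferase reporter cells, 24 h at 37 degrees C. Readout was Dual-Glo firefly luminescence.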

Activity change, positive = activation, inactive:
Nc1nc(-c2nn(Cc3ccccc3F)c3ncccc23)nc(N)c1N1CCOCC1 -17.4%
COc1ccccc1N1CCN(C(=O)c2c3c(nc4ccccc24)C(=O)N(C2CCCCC2)C3)CC1 -7.22%
COc1ccc(-c2nc(CNS(=O)(=O)c3ccc(F)cc3)cs2)cc1 -27.9%
Cc1ccc(C)c(N2CCN(C(=O)c3c4c(nc5ccccc35)C(=O)N(C3CCCCC3)C4)CC2)c1 -20.9%
O=C(CSc1nc2c(c(=O)[nH]1)CN(Cc1ccc3c(c1)OCO3)CC2)Nc1ccc(F)cc1 -3.08%
O=C(N/N=C/c1ccccc1O)c1ccncc1 -16%
CCCOc1cccc(C(=O)Nc2ccc(-c3nc4ccccc4o3)cc2)c1 -14.7%
COc1cc(OC)cc(-n2c(=O)c3ccccc3n(CC(=O)NCCc3ccc(OC)c(OC)c3)c2=O)c1 5.42%
COc1ccc2cc(CNc3ccc(OC)c(OC)c3)c(=O)n(CC(=O)Nc3ccc(C)cc3)c2c1 -9.1%
CCc1ccc(NC(=O)c2ccc(CN3C(=O)C(C)=C(c4ccc(C)cc4)S3(=O)=O)cc2)cc1 -32.9%
COc1ccc(-c2onc(C)c2C)cc1S(=O)(=O)N1CCC(C)CC1 -47.4%
COc1cccc(-c2nc(C(N)=O)c3c(n2)n(-c2ccc4c(c2)OCO4)c(=O)n3C)c1OC -18.5%
Cn1c(C(=O)NCc2cccc(F)c2)cc2cc(S(=O)(=O)N3CCCCC3)ccc21 -35.6%
CSc1nc2c([nH]c3ccccc32)c(=O)n1-c1ccc(F)cc1 -28.8%
O=C(Cn1cc(S(=O)(=O)Cc2ccc(F)cc2)c2ccccc21)NCc1ccccc1 -24%
COc1ccccc1CCNC(=O)c1cccn1-c1nnc(N2CCCCC2)s1 -13.3%
CCOc1ccccc1NC(=O)CSc1cc(=O)n(CC)c2ccccc12 -28.4%
CCOc1ccc(-c2cc(C(F)(F)F)c(C#N)c(SCC(=O)Nc3ccccc3)n2)cc1 -10.3%
CC(=O)c1cc(-c2ccccc2)n(CCC(=O)Nc2cc(C)cc(C)c2)c1C -38.5%
C=CCc1ccc(OCc2ccc(C(=O)Nc3ccc(NC(C)=O)cc3)o2)c(OC)c1 -80.9%
COc1cccc(NC(=O)Cn2cc(C(=O)c3ccc(F)cc3)c(=O)c3cc(OC)ccc32)c1 -17.4%
Cc1cccc(Cn2cnc3c(oc4ccccc43)c2=O)c1 1.28%
CCc1oc2ccccc2c1C(=O)c1cc(I)c(O)c(I)c1 -25.5%
COc1ccc(-c2c(C)nn3c(N4CCN(c5ccccc5F)CC4)cc(C)nc23)cc1OC -14%
Cc1ccc(NS(=O)(=O)c2ccc3[nH]c4c(c3c2)CCCCCC4)cc1 -26%
Cc1cc(C)cc(NC(=O)N2CCC(CN3CCc4ccccc4C3)CC2)c1 -12%
CCC(=O)N1CCc2cc(CNS(=O)(=O)c3ccc(Br)s3)ccc21 -16.5%
N#Cc1ccc(NC2=NS(=O)(=O)c3ccccc32)cc1 25.9%
CCN1CCN(C(c2ccccc2F)c2c(O)cc(C)n(CCOC)c2=O)CC1 (centres undefined) 4.48%
CCCN(CCC)CCNC(=O)c1sc2nc3n(c(=O)c2c1C)CCCCC3 -3.33%
COc1ccc(-n2c(C)nc3cc(C(=O)NC4CCCCCC4)ccc32)cc1 -20.2%
Cc1ccc(C)c(N2C(=O)N(C)c3ccccc3S2(=O)=O)c1 -24.7%
COC(=O)c1c(NC(=O)c2nc(SCc3ccccc3C)ncc2Cl)sc2c1CCCC2 0.532%
CC1CCCN(S(=O)(=O)c2ccc(N3CCCCS3(=O)=O)cc2)C1 (centres undefined) -11.4%
O=c1cc(-c2ccc(F)cc2)nc(SCc2nc(-c3cccc(C(F)(F)F)c3)no2)[nH]1 -2.59%
Cc1c(C(=O)N(Cc2cccc(F)c2)C2CCS(=O)(=O)C2)oc2cc(Br)ccc12 (centres undefined) -35.4%
COc1ccc(NC(=O)CN2C(=O)C3(SCC(=O)N3c3ccccc3)c3ccccc32)cc1Cl (centres undefined) -27.5%
COc1ccc(CNC(=O)c2cccc(N3CCCS3(=O)=O)c2)cc1OC -91.5%
Cc1ccc(C(C)C)cc2c(C)ccc1-2 -0.0225%
CC(C)c1ccc(NC(=O)c2ccc(Cn3nc(N4CCN(c5ccccc5)CC4)ccc3=O)o2)cc1 -41.2%
O=C(Cn1ncn2nc(-c3cccs3)cc2c1=O)NCc1ccccc1Cl 0.0399%
CCc1ccc(N2C(=O)CSC23C(=O)N(Cc2cccc(OC)c2)c2ccccc23)cc1 (centres undefined) -37.4%
CCn1c(=NC(=O)c2ccc(S(=O)(=O)N3CCCC3)cc2)sc2cc(Br)ccc21 -15%
CC(C)=CCC/C(C)=C/CC/C(C)=C/CCC(=O)OC/C=C(\C)CCC=C(C)C 4.18%
CCOC(=O)c1c(C)c(-c2ccccc2)n(CC(=O)NC2CCCCCC2)c1C -3.36%
O=C(NCc1ccc(F)cc1)c1ccc(Cn2c(SCc3ccc(F)cc3)nc3cccnc32)cc1 -8.47%
CC(C)Cn1c(=O)c2ccccc2n2c(CCC(=O)NCc3ccc(Cl)cc3)nnc12 -11%
CCN(CCCNC(=O)c1cc2cc3ccc(OC)cc3nc2s1)c1cccc(C)c1 1.97%
CC(C)(C)NC(=O)[C@H]1CN(Cc2cccnc2)CCN1C[C@@H](O)C[C@@H](Cc1ccccc1)C(=O)N[C@H]1c2ccccc2C[C@H]1O -20.4%
CCCN1C(=O)c2[nH]nc(-c3cccc(OC)c3)c2C1c1ccccn1 (centres undefined) -20.8%
Cn1nnc2c(NCc3ccccc3)ncnc21 14.1%
Cc1cc(C)cc(-n2c(C)nc3cc(C(=O)NCc4ccc(F)cc4)ccc32)c1 -27.8%
CCC(C)NC(=O)c1ccc2c(c1)N(Cc1ccccc1F)C(=O)c1ccccc1S2=O (centres undefined) -13.9%
Cc1cc(C)cc(NC(=O)c2cnn(-c3ccc(C)c(C)c3)c2C2CCNCC2)c1 -18.5%
O=C(CCC(=O)N1CCSc2ccccc21)NCc1ccccc1Cl -13.2%
CCOc1ccc(CCNC(=O)c2cn(-c3cccc(OC)c3)c(=O)c3ccccc23)cc1 -11.5%
Cc1cccc(Nc2cc(Cl)nc(SCC(=O)O)n2)c1C -7.32%
CCCCn1c(=N)c(C(=O)NC2CCCCC2)cc2c(=O)n3cccc(C)c3nc21 12.4% [at 11.5 µM, percent change from vehicle, -100% = no light]
Cn1c(=O)oc2cc(S(=O)(=O)NCCC(=O)NCc3ccc(F)cc3)ccc21 -4.04%
CCOc1ccccc1CNC(=O)c1cnc2sc(N3CCOCC3)nn2c1=O -9.66%
CCN(C(=O)Cn1c(=O)nc(-c2ccccc2)c2cc(Cl)ccc21)c1cccc(C)c1 -0.728%
CCc1cccc(NC(=O)C2CCC(CNS(=O)(=O)c3ccc4c(c3)CCCC(=O)N4)CC2)c1 (centres undefined) -21.9%
CCOc1ccc(CCNC(=O)Cn2ncc3c([nH]c4ccccc43)c2=O)cc1OCC -9.7%
O=C(N/N=C/c1ccc([N+](=O)[O-])o1)c1ccc(O)cc1 -44.3%
OCCN1CCN(C(c2ccc(Cl)cc2Cl)c2sc3nc(-c4ccco4)nn3c2O)CC1 (centres undefined) -4.17%
CCOc1ccc(-n2c(SCC(=O)Nc3ccc4c(c3)OCCO4)nc3c([nH]c4ccccc43)c2=O)cc1 -14.4%
Clc1ccccc1-c1nnc(-c2ccccc2CNc2ccc(Br)cc2)o1 18.2%
CC(C)c1ccc2c(c1)NC(c1ccncc1)=NC(c1cccs1)=N2 18.4%
COc1ccc(-c2cc(OC(=O)c3ccccc3)c3c(C)oc(C)c3c(=O)c2)cc1OC -6.53%
CCc1cccc(NC(=O)C(NS(=O)(=O)c2ccc3nc(C)sc3c2)C(C)C)c1 (centres undefined) -9.68%
CCOc1ccccc1NC(=O)CCc1c(C)nc2c(c(C)nn2-c2ccccc2)c1C 3.4%
C#CCSc1nc(-c2ccccc2)c2cc(Cl)ccc2n1 -17.2%
Cc1ccc(Cl)cc1N1CCN(C(=O)c2ccc3c(c2)N(Cc2ccccc2F)C(=O)c2ccccc2S3=O)CC1 (centres undefined) -12.8%
O=C(CCS(=O)(=O)c1cc(Br)cc2c1N(C(=O)C1CC1)CC2)Nc1ccc(F)cc1 -5.32%
Cc1ccc(CNC(=O)c2sc3nc(-c4ccccc4)cn3c2C)cc1 -8.32%
Cc1cccc(Cn2cnc3c(cnn3-c3ccc(Cl)cc3)c2=O)c1 -0.682%
Cc1cc(C)c2oc(C(=O)Nc3ccc(S(=O)(=O)N4CCC(C)CC4)cc3)cc(=O)c2c1 -8.73%
Cc1ccc(CN2CCN(C3CCN(C(=O)Nc4ccccc4C(F)(F)F)CC3)C(=O)C2=O)cc1 -13.9%
Cc1cc(C)n2c(Nc3ccccc3)c(-c3ccccc3)nc2n1 -8.32%
CCn1c(=O)cc(OCC(=O)N2CCN(c3ccccc3OC)CC2)c2ccccc21 -3.94%
Cc1cccc(Cn2nnc(C(=O)Nc3cc(C)ccc3C)c2N)c1 -27.2%
Cc1cccc(C)c1NC(=O)CCCN1C(=O)CCn2nc(-c3cn(C)c4ccccc34)cc21 3.68%
COc1cccc(NC(=O)C2CCN(c3nc4ccccc4nc3C(F)(F)F)CC2)c1 -15.2%
Cc1ccc(CNC(=O)CCCn2c(=O)c3ccccc3n(Cc3ccccc3C)c2=O)cc1 -29.5%
CC(NC(=O)c1ccc2c(c1)N(Cc1ccc(Cl)cc1)C(=O)c1ccccc1S2=O)c1ccccc1 (centres undefined) -30.2%
COc1ccc(Cl)cc1NC(=O)Cn1cnc2c1c(=O)n(C)c(=O)n2C -0.84%
CC(C)NC(=O)C1CCCN(c2ncnc3c2nc2n3CCCCC2)C1 (centres undefined) -21.3%
CC(CNS(=O)(=O)c1ccc2c(c1)CC(=O)N2C)c1ccccc1 (centres undefined) -7.86%
Cc1ccc(C(C)C)c(OCCCn2c(=O)oc3ccccc32)c1 -18%
CCOC(=O)c1c(C)oc2nc(C)nc(NCCCN3CCN(c4ccc(F)cc4)CC3)c12 -15.1%
COc1ccc(C(=O)NCCn2cc(SCc3cc(C)ccc3C)c3ccccc32)cc1 -62.2%
COc1ccccc1NC(=O)c1ccc2oc(=O)c(S(=O)(=O)c3ccccc3)cc2c1 14%
Cc1cc(N2CCN(c3cccc(C)c3C)CC2)n2nc(C)c(-c3ccc(Cl)cc3)c2n1 -19.1%
CCOc1ccc(C2c3c(oc4ccccc4c3=O)C(=O)N2c2nnc(C)s2)cc1OC (centres undefined) -3.14% [at 11.5 µM, percent change from vehicle, -100% = no light]
